Test results taken from the RNAGym collection of RNA variant scans (doi:10.7554/elife.90254).
Read counts are not given, so values of variants with three or more changes are uncertain.

B1: LINE1-mini (parent)
chain: GGCAGAGCUCAACACAGCGUGGCAAAGUGGCUGUGGCUAGACUGCC

Variants of: B1
Assay: self-cleavage, relative activity (ratio to wild type); higher = more cleavage; in vitro, sequencing; the parent is a self-cleaving ribozyme

Row | Variant | self-cleavage
1 | GGCAGAGCUCAAUACAGCGUGGCAAAAUGGCUGUUGCUAGACUGCC [C13U G27A G35U] | 0.04
2 | GGCAGAGCUCAAUACAGCGUGGCAAAGUCGCUUUGGCUAGACUGCC [C13U G29C G33U] | 0.08
3 | GGCAGAGCUCAAUACAGCGUGUCAAACUGGCUGUGGCUAGACUGCC [C13U G22U G27C] | 0.14
4 | GGCAGAGCUCAAUACAGCGUGGCAAAGUGGCUGUCGCUAGACGACC [C13U G35C U43G G44A] | 0.02
5 | GGCAGAGCUCAAUACAGCGUGGCAAAGUAGCUGUGGCUAGACAGCC [C13U G29A U43A] | 0.06
6 | GGCAGAGCUCAAUACAGCGUGUCAAAGUGGCUGUGGCUAGACUGAC [C13U G22U C45A] | 0.06
7 | GGCAGAGCUCAAUACAGCGUGUCAAAGUGGCUGUGGCUAGACUGGC [C13U G22U C45G] | 1.4
8 | GGCAGAGCUCAAUACAGCGUGGCAAAGUUGCUGUGAGUAGACUGCC [C13U G29U G36A C37G] | 0.03
9 | GGCAGAGCUCAAUACAGCGUGGCAAAGUAGCUGUGGCUAGACUGCA [C13U G29A C46A] | 0.08
10 | GGCAGAGCUCAAUACAGCGUGCCAAAGUGGCUGUGGCUAGUCUGCC [C13U G22C A41U] | 0.09
11 | GGCAGAGCUCAAUACAGCGUGGCAAAGUGGCUUUGGCUAGACUGCA [C13U G33U C46A] | 0.12
12 | GGCAGAGCUCAAUACAGCGUGGCAAAGUGCCUGUGGCUAGAAUGCC [C13U G30C C42A] | 0.07
13 | GGCAGAGCUCAAUACAGCGUGUCAAAGUGGCUGUGGUUAGUCUGCC [C13U G22U C37U A41U] | 0.13
14 | GGCAGAGCUCAAUACAGCGUGGCAAACUGGCUGUGGCUAGACUACC [C13U G27C G44A] | 0.1
15 | GGCAGAGCUCAAUACAGCGCGGCAAAGUGGCUGUGGCUAAACUGCC [C13U U20C G40A] | 0.04
16 | GGCAGAGCUCAAUACAGCGUGACAAAGUGGCUGUGGCUAGGCUGAC [C13U G22A A41G C45A] | 0.13
17 | GGCAGAGCUCAAUACAGCGUUGCAAAGUGGCUGAGGCUAGCCUGCC [C13U G21U U34A A41C] | 0.03
18 | GGCAGAGCUCAAUACAGCGAGACAAAGUGGCUGUGGCUAGACUGCC [C13U U20A G22A] | 0.11
19 | GGCAGAGCUCAAUACAGCGUGGCAAAGUGCCUGUGGCUAGACUGAC [C13U G30C C45A] | 0.06

Row | Variant | self-cleavage
20 | GGCAGAGCUCAAUACAGCGUGGCAAAAUGGCUAUGGCUAGACUGCC [C13U G27A G33A] | 0.12
21 | GGCAGAGCUCAAUACAGCGGGCCAAAGUGGCUGUGGCAAGACUGCC [C13U U20G G22C U38A] | 0.07
22 | GGCAGAGCUCAAUACAGCGUGCCAAAGUGGAUGUGGCUAGACUGCC [C13U G22C C31A] | 0.03
23 | GGCAGAGCUCAAUACAGCGUUGCAAGGUGGCUGUGGCUAGACUGCC [C13U G21U A26G] | 0.03
24 | GGCAGAGCUCAAUACAGCGUGGCAAAGUCGCUGGUGCUAGACUGCC [C13U G29C U34G G35U] | 0.04
25 | GGCAGAGCUCAAUACAGCGUGGCAAACUGGCUGUGUCUAGGCUGCC [C13U G27C G36U A41G] | 0.05
26 | GGCAGAGCUCAAUACAGCGGGGUAAAGUGGCUGUGGCUAGACAGCC [C13U U20G C23U U43A] | 0.01
27 | GGCAGAGCUCAAUACAGCGUGGCAAAGAGGCUGUAGCUGGACUGCC [C13U U28A G35A A39G] | 0.16
28 | GGCAGAGCUCAAUACAGCGAGGCACUGUUGCUGUGGCUAGACUGCC [C13U U20A A25C A26U G29U] | 0.04
29 | GGCAGAGCUCAAUACAGCGUGUCAAAGUGGCUGUGUCUAGACUGCC [C13U G22U G36U] | 0.14
30 | GGCAGAGCUCAAUACAGCGUGUCAAAGUGGUUGUGGCUACACUGCC [C13U G22U C31U G40C] | 0.12
31 | GGCAGAGCUCAAUACAGCGUGGCAAAGUAGCUGUGGCUAGUCUGCC [C13U G29A A41U] | 0.12
32 | GGCAGAGCUCAAUACAGCGAGGCAAUAUGGCUUUGGCUAGACUGUC [C13U U20A A26U G27A G33U C45U] | 0.01
33 | GGCAGAGCUCAAUACAGCGAUGCAAAGUGGCUGUGGCUAAACUGGC [C13U U20A G21U G40A C45G] | 0.03
34 | GGCAGAGCUCAAUACAGCGUGGCAAAGUGGCUGUGGCUAUACUACC [C13U G40U G44A] | 0.15
35 | GGCAGAGCUCAAUACAGCGUGCCAAACUGACUGUGGCUAGACUGCC [C13U G22C G27C G30A] | 0.03
36 | GGCAGAGCUCAAUACAGCGUUGCAAAGUGGCUGUGGCUAGUCUGCC [C13U G21U A41U] | 0.2
37 | GGCAGAGCUCAAUACAGCGUUGCAAAGUGGCUGUGGCUAGACUGCU [C13U G21U C46U] | 0.03
38 | GGCAGAGCUCAAUACAGCGUGACCAAGUGGAUGUGGCAGGACUGCC [C13U G22A A24C C31A U38A A39G] | 0.11

Row | Variant | self-cleavage
39 | GGCAGAGCUCAAUACAGCGAGGCAAAGUGGCUGUGCCUAGACUGCC [C13U U20A G36C] | 0.07
40 | GGCAGAGCUCAAUACAGCGUGACAAAGUGGCAGUGGCUAGACUGCC [C13U G22A U32A] | 0.09
41 | GGCAGAGCUCAAUACAGCGUGGCAAAGUCGCUGUGGCGAGACCGCC [C13U G29C U38G U43C] | 0
42 | GGCAGAGCUCAAUACAGCGUGGCAAAGUGGCUAUUGCUAGACUGCC [C13U G33A G35U] | 0.04
43 | GGCAGAGCUCAAUACAGCGUCUCAAAGUGGCUGUGGCUAGACUGCC [C13U G21C G22U] | 0.29
44 | GGCAGAGCUCAAUACAGCGUGACAAAGUGGCUGGGCCUAGACUGCC [C13U G22A U34G G36C] | 0.09
45 | GGCAGAGCUCAAUACAGCGUGCCAAAGUGGCGGUGGCUAGACUGCC [C13U G22C U32G] | 0.03
46 | GGCAGAGCUCAAUACAGCGUGGCAAAGUUGCUGUGGCUGAACUGCC [C13U G29U A39G G40A] | 0.07
47 | GGCAGAGCUCAAUACAGCGUGGCAAAGUGGCUGUCGUUAGACUUCC [C13U G35C C37U G44U] | 0.04
48 | GGCAGAGCUCAAUACAGCGUGGCAAAGUGGCUCUGCCUAGACUGUC [C13U G33C G36C C45U] | 0.03
49 | GGCAGAGCUCAAUACAGCGUGGCAAAAGGGCUGUGGCUAGACUGCC [C13U G27A U28G] | 0.08
50 | GGCAGAGCUCAAUACAGCGUGGCAAAGUGGCUGUAGCUAGACUGUU [C13U G35A C45U C46U] | 1.24
51 | GGCAGAGCUCAAUACAGCGUGGCAAAGUGACUGUGGCUAGACUGAC [C13U G30A C45A] | 0.14
52 | GGCAGAGCUCAAUACAGCGUGGCAAAGUGACUAGGGCUAGACUGCC [C13U G30A G33A U34G] | 0.04
53 | GGCAGAGCUCAAUACAGCGUGGCAAAGUGCCUGUGACUAGACUGCC [C13U G30C G36A] | 0.09
54 | GGCAGAGCUCAAUACAGCGGGGCAAAGUGGGUGUGGCUAGACUUCA [C13U U20G C31G G44U C46A] | 0.01
55 | GGCAGAGCUCAAUACAGCGUGGCAAAGUGGCUGUGGCUAAACUGGC [C13U G40A C45G] | 0.01
56 | GGCAGAGCUCAAUACAGCGUUGCAAAGUUGCUGUGGCUAGAUUGCG [C13U G21U G29U C42U C46G] | 0.04
